# Experimental data: the supplement of paper PMC9446081
# Hit rate of the full screen: of about 39,000 compounds, about 220 (0.56%) showed activity. The list shows a part of the results.
# Test system: Escherichia coli K-12 BW25113
# Experiment: relative growth (OD600 normalised to plate interquartile mean) (fraction); higher = less growth inhibition, active = 0.2 or less
# Details: 50 µM; LB; incubation time: overnight (16-24 h)
# 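Also: static incubation at 37 °C against the wild-type strain, values averaged over two biological replicates.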
row,SMILES,relative growth
1,CC(=O)OC1CCC2(C)C3=C(CCC2C1(C)C)C1(C)CCC(C(C)CCC=C(C)C)C1(C)CC3 (stereo unspecified),inactive: 0.975
2,O=C(N[C@@H]1CC[C@@H](CC(=O)N2CCOCC2)O[C@H]1CO)c1ccccn1,inactive: 1.01
3,COC(=O)Nc1nc2cc(C(=O)c3ccccc3)ccc2[nH]1,inactive: 1.05
4,Cc1cc(-c2ccccc2)oc2cc3ccccc3c1-2,inactive: 1.02
5,C[C@H]1CN([C@@H](C)CO)C(=O)c2cc(C#CCc3ccccc3)cnc2O[C@@H]1CN(C)C(=O)Cc1cccnc1,inactive: 1.01
6,O=C(O)c1cccc(O)c1O,inactive: 1.01
7,C[C@H]1CN([C@@H](C)CO)C(=O)c2cc(NC(=O)Cc3ccccc3)ccc2O[C@@H]1CN(C)Cc1ccc(C(F)(F)F)cc1,inactive: 1.03
8,NCC[C@@H]1CC[C@@H](NC(=O)c2ccccc2F)[C@@H](CO)O1,inactive: 1.05
9,CC(=O)c1cccc(C(F)(F)F)c1,inactive: 0.96
10,C[C@H]1CN([C@@H](C)CO)C(=O)Cc2cc(NC(=O)Cn3cnnn3)ccc2O[C@@H]1CN(C)S(=O)(=O)c1ccccc1,inactive: 0.997
11,C[C@@H]1CN([C@H](C)CO)S(=O)(=O)c2ccc(C#Cc3ccccc3F)cc2O[C@H]1CN(C)C(=O)Cc1ccncc1,inactive: 0.987
12,COc1ccc(NC(=O)Nc2ccc3c(c2)C(=O)N([C@H](C)CO)C[C@H](C)[C@@H](CN(C)C(=O)Nc2ccc(OC)cc2)OCCCC[C@@H](C)O3)cc1,inactive: 0.982
13,NNC(=O)C1=NO[C@H]2COC3(CCN(c4ncccn4)CC3)OC[C@@H]12,inactive: 0.972
14,Cc1ccc(S(=O)(=O)N(C)C[C@H]2Oc3ccc(NS(=O)(=O)c4cn(C)cn4)cc3C(=O)N([C@@H](C)CO)C[C@@H]2C)cc1,inactive: 0.964
15,COCCNC(=O)C[C@@H]1CC[C@@H]2[C@H](COc3ccc(NC(=O)Nc4cccc(F)c4)cc3C(=O)N2C)O1,inactive: 0.993
16,C[C@H]1CN([C@@H](C)CO)C(=O)c2cc(NC(=O)Nc3ccccc3)ccc2O[C@H]1CN(C)Cc1ccc(C(F)(F)F)cc1,inactive: 0.98
17,C[C@@H]1CN([C@H](C)CO)C(=O)c2cc(NC(=O)Nc3cccc4ccccc34)ccc2O[C@@H](C)CCCCO[C@@H]1CN(C)C(=O)NC1CCCCC1,inactive: 1.03
18,Cc1ncc([N+](=O)[O-])cc1C(=O)O,inactive: 0.992
19,C[C@H]1CN([C@@H](C)CO)C(=O)CCCn2nncc2CO[C@@H]1CN(C)C(=O)Nc1cccc(Oc2ccccn2)c1,inactive: 0.975
20,CO[C@H]1CN(C)C(=O)c2ccc(NS(=O)(=O)c3cn(C)cn3)cc2OC[C@@H](C)N(CC2CC2)C[C@@H]1C,inactive: 1
21,CCC(=O)N(C)C[C@@H]1Oc2ncc(C#C[C@H](C)O)cc2C(=O)N([C@H](C)CO)C[C@@H]1C,inactive: 1.02
22,O=C(CN1CCOCC1)NCC[C@@H]1CC[C@@H](NC(=O)Nc2ccccc2)[C@@H](CO)O1,inactive: 1

row,SMILES,relative growth
1,Nc1ccc(-n2cnnn2)cc1,inactive: 0.933
2,C[C@H](CO)N1C[C@H](C)[C@@H](CN(C)Cc2ccc(C(=O)O)cc2)Oc2c(NC(=O)C3CC3)cccc2C1=O,inactive: 0.995
3,C[C@H]1CN([C@@H](C)CO)C(=O)Cc2cc(NS(=O)(=O)c3cn(C)cn3)ccc2O[C@H]1CN(C)Cc1ccc(C(=O)Nc2ccccc2N)cc1,inactive: 1
4,COCCNC(=O)[C@H]1[C@H](CO)[C@H]2Cn3c(ccc(-c4ccccc4F)c3=O)[C@@H]1N2S(C)(=O)=O,inactive: 1
5,COc1ccc(NC(=O)N(C)C[C@H]2Oc3c(NC(=O)C4CC4)cccc3C(=O)N([C@@H](C)CO)C[C@@H]2C)cc1,inactive: 0.998
6,COc1ccccc1-c1ccc2c(c1)O[C@H](CN(C)CC1CCOCC1)[C@H](C)CN([C@@H](C)CO)S2(=O)=O,inactive: 1.02
7,C[C@H]1CN([C@@H](C)CO)C(=O)Cc2cc(NS(=O)(=O)c3cn(C)cn3)ccc2O[C@@H]1CN(C)C(=O)Nc1ccccc1,inactive: 1.02
8,COc1ccccc1CNC(=O)C[C@H]1CC[C@@H]2[C@H](COC[C@@H](O)CN2C(=O)Nc2ccc(Cl)cc2)O1,inactive: 0.957
9,C[C@H](CO)N1C[C@H](C)[C@H](CN(C)S(=O)(=O)c2cn(C)cn2)Oc2ccc(NC(=O)CCCCCC(=O)Nc3ccccc3N)cc2CC1=O,inactive: 0.997
10,C[C@H](CO)N1C[C@H](C)[C@@H](CN(C)Cc2ccc(C(F)(F)F)cc2)OCCCC[C@H](C)Oc2ccc(NS(=O)(=O)c3ccc(F)cc3)cc2C1=O,inactive: 1.02
11,Cn1ncc(Br)c1C(=O)NN,inactive: 0.981
12,COc1ccc(S(=O)(=O)N(C)C[C@@H]2OCCCC[C@@H](C)Oc3ccc(NC(=O)Nc4cccc5ccccc45)cc3C(=O)N([C@@H](C)CO)C[C@@H]2C)cc1,inactive: 1.01
13,C=C1CCC(O)CC1=CC=C1CCCC2(C)C1CCC2C(C)CCCC(C)C (stereo unspecified),inactive: 0.932
14,Cc1cn(C2C=CC(CO)O2)c(=O)[nH]c1=O (stereo unspecified),inactive: 0.808
15,Cc1noc(C)c1NC(=O)Nc1ccc2c(c1)C(=O)N([C@@H](C)CO)C[C@@H](C)[C@H](CN(C)Cc1ccc(Cl)c(Cl)c1)O2,inactive: 0.99
16,C[C@H](CO)N1C[C@H](C)[C@H](CN(C)Cc2ccc(-c3ccccc3)cc2)Oc2c(NS(=O)(=O)c3ccc(Cl)cc3)cccc2C1=O,inactive: 1.01
17,O=S1(=O)C[C@H](NCCO)[C@@H](O)C1,inactive: 0.982
18,CCOC(=O)[C@@H]1C(Cc2ccccc2)=CN(CCc2ccc(OC)c(OC)c2)C(=O)N1c1ccc(OC)cc1,inactive: 1.01
19,C[C@H]1CCCCO[C@H](CN(C)Cc2ccc(C(=O)O)cc2)[C@@H](C)CN([C@@H](C)CO)C(=O)c2cc(NC(=O)CCC(F)(F)F)ccc2O1,inactive: 1.03
20,C[C@@H]1CN([C@H](C)CO)C(=O)Cc2cc(NC(=O)Nc3ccc4c(c3)OCO4)ccc2O[C@@H]1CN(C)Cc1ccc(-c2ccccc2)cc1,inactive: 0.927
21,Cc1noc(C)c1NC(=O)N[C@@H]1CC[C@H](CC(=O)N2CCN(C)CC2)O[C@@H]1CO,inactive: 1.03
22,C[C@@H]1CCCCO[C@@H](CN(C)Cc2ccc(C(F)(F)F)cc2)[C@@H](C)CN([C@@H](C)CO)C(=O)c2cc(NC(=O)CCC(F)(F)F)ccc2O1,inactive: 1.02

row,SMILES,relative growth
1,N=C(NO)c1cccc(C(=N)NO)n1,inactive: 0.974
2,C[C@@H]1CN([C@H](C)CO)C(=O)Cc2cc(NC(=O)CCC(F)(F)F)ccc2O[C@H]1CN(C)C(=O)Nc1ccc(C(F)(F)F)cc1,inactive: 1
3,C[C@@H]1CN([C@H](C)CO)C(=O)c2c(c3ccccc3n2C)-c2ccccc2CO[C@@H]1CN(C)Cc1cccc(O)c1,inactive: 0.97
4,C[C@H]1CCCCO[C@H](CN(C)Cc2ccccc2)[C@@H](C)CN([C@@H](C)CO)C(=O)c2cc(NC(=O)Nc3ccc(F)cc3)ccc2O1,inactive: 1
5,C[C@@H]1CN([C@H](C)CO)C(=O)Cc2cc(NC(=O)Nc3ccccc3)ccc2O[C@H]1CN(C)Cc1ccc(C(=O)Nc2ccccc2N)cc1,inactive: 1.01
6,C[C@@H]1O[C@@H](O[C@H]2[C@@H](Oc3cc(O)c4c(c3)O[C@H](c3ccc(O)cc3)CC4=O)O[C@H](CO)[C@@H](O)[C@@H]2O)[C@H](O)[C@H](O)[C@H]1O,inactive: 1
7,C[C@@H]1CCCCO[C@@H](CN(C)Cc2ccccc2)[C@H](C)CN([C@@H](C)CO)C(=O)c2cc(NC(=O)NC3CCCCC3)ccc2O1,inactive: 1.01
8,Cc1nc2c(=O)n(C)c(=O)n(C)c2nc1Cl,inactive: 0.948
9,C[C@@H]1CN([C@@H](C)CO)C(=O)c2cc(NC(=O)Nc3ccc(C(F)(F)F)cc3)ccc2O[C@@H](C)CCCCO[C@H]1CN(C)S(=O)(=O)c1ccccc1,inactive: 0.989
10,Cc1ccc([N+](=O)[O-])cc1S(N)(=O)=O,inactive: 1.02
11,Cc1oncc1C(=O)Nc1ccc(C(F)(F)F)cc1,inactive: 0.955
12,C[C@@H]1CN([C@@H](C)CO)C(=O)CCCn2nncc2CO[C@H]1CN(C)C(=O)Nc1ccnc(N2CCOCC2)c1,inactive: 0.984
13,Cc1cc(C(=O)Nc2cccc3c2O[C@@H](CN(C)S(=O)(=O)c2ccccc2)[C@@H](C)CN([C@H](C)CO)C3=O)n(C)n1,inactive: 1.02
14,O=C1CCC(=O)N1CN1CCOCC1,inactive: 1.03
15,COC(=O)[C@@H](Cc1ccccc1)N[C@H](/C=C/C1CC1)[C@@H](O)CCn1cc(-c2cccc(/C=C/C(=O)NO)c2)nn1,inactive: 1
16,N#C[C@H]1[C@H](c2ccc(C#Cc3ccccn3)cc2)[C@@H](CO)N1C(=O)CN1CCOCC1,inactive: 0.977
17,COCCn1cc(N)cn1,inactive: 0.981
18,C[C@@H]1CN([C@H](C)CO)C(=O)Cc2cc(NS(=O)(=O)c3cn(C)cn3)ccc2O[C@H]1CN(C)C(=O)Nc1ccc(F)cc1,inactive: 0.998
19,COc1ccc(CNc2nc(N3CCCC3CO)ncc2C(=O)NCc2ncccn2)cc1Cl (stereo unspecified),inactive: 1.04
20,Cc1ccc(S(=O)(=O)N(C)C[C@@H]2Oc3c(NC(=O)c4cc(C)nn4C)cccc3C(=O)N([C@@H](C)CO)C[C@@H]2C)cc1,inactive: 0.972
21,C[C@@H]1CN([C@H](C)CO)C(=O)c2cc(-c3cccc(C(=O)N(C)C)c3)cnc2O[C@@H]1CN(C)S(=O)(=O)c1cccc(F)c1,inactive: 0.976
22,C[C@@H]1CCCCO[C@@H](CN(C)C(=O)Nc2ccc3c(c2)OCO3)[C@H](C)CN([C@@H](C)CO)C(=O)c2cc(NC(=O)Nc3ccc(C(F)(F)F)cc3)ccc2O1,inactive: 1.02
